From article PMC10651785 (Blood, 2022)

B1: NLuc–STAT3–FlAsH (NSF) Y640F (natural protein)
chain: not shown
modifications: FlAsH (fluorescein arsenical short hairpin) probe on the tetracysteine motif
B2: NLuc–STAT3–FlAsH (NSF) K658Y (natural protein)
chain: not shown
modifications: FlAsH (fluorescein arsenical short hairpin) probe on the tetracysteine motif

Biological target: the molecule itself
Test: FRET or BRET

Row | Protein | reduction in the ability to form homodimers (BRET) compared with WT [%]
1 | B1 | ~50
2 | B2 | ~50
